Lines with a small IC50 respond at low doses; where the fit passes the top or lowest dose, that dose stands as a limit. AUC is the area under the same curve over the 256-fold range up to the top dose, as a fraction; the more sensitive the line, the further below 1. Where the top dose is marked as inferred, it was derived from the fitted curves, not read from the paper.
compound: Cc1ccc(-c2c(C(=O)CF)n(CCCO)c3ncnc(N)c23)cc1 [FMK]; test: Viability of human cancer cell lines after 72 h of drug (GDSC screen); details: top dose inferred
Method: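 Human cancer cell lines in 384-well plates, medium with 10% serum, drug for 72 h over a 256-fold dose range (nine 2-fold or five 4-fold steps up to the top dose). Adherent lines were fixed and stained with the nucleic acid dye Syto60, suspension lines read with resazurin; signal relative to control wells, capped at 0 and 100%. One two-parameter sigmoid per drug and line, fitted in a mixed model over all curves with the slope shared within a line.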

Cell Line	AUC	IC50 [µM]
MEG-01 (chronic myeloid leukaemia, suspension, top dose 20 µM)	0.942	> 20
MEL-JUSO (melanoma, adherent, top dose 20 µM)	0.944	> 20
MES-SA (uterus, adherent, top dose 20 µM)	0.992	> 20
MFE-280 (endometrium, adherent, top dose 20 µM)	0.959	> 20
MFE-319 (endometrium, adherent, top dose 20 µM)	0.988	> 20
MFH-ino (soft tissue, adherent, top dose 20 µM)	0.982	> 20
MFM-223 (breast, adherent, top dose 20 µM)	0.989	> 20
MG-63 (osteosarcoma, adherent, top dose 20 µM)	0.984	> 20
MHH-ES-1 (Ewing sarcoma, adherent, top dose 20 µM)	0.955	> 20
MHH-PREB-1 (B-cell leukaemia, suspension, top dose 20 µM)	0.989	> 20
MIA-PaCa-2 (pancreas, adherent, top dose 20 µM)	0.983	> 20
MKN1 (stomach, adherent, top dose 20 µM)	0.97	> 20
MKN28 (stomach, adherent, top dose 20 µM)	0.982	> 20
MKN45 (stomach, adherent, top dose 20 µM)	0.981	> 20
ML-1 (thyroid, adherent, top dose 10.24 µM)	0.934	> 10.2
ML-2 (acute myeloid leukaemia, suspension, top dose 20 µM)	0.937	> 20
MLMA (hairy cell leukaemia, semi-adherent, top dose 20 µM)	0.942	> 20
MMAC-SF (melanoma, adherent, top dose 20 µM)	0.944	> 20
MN-60 (B-cell leukaemia, suspension, top dose 20 µM)	0.978	> 20
MOG-G-CCM (glioma, adherent, top dose 20 µM)	0.964	> 20
MOG-G-UVW (glioma, adherent, top dose 20 µM)	0.967	> 20
MOLM-13 (acute myeloid leukaemia, suspension, top dose 20 µM)	0.804	9.24
MOLP-8 (myeloma, suspension, top dose 20 µM)	0.908	> 20
MOLT-4 (lymphoblastic leukaemia, suspension, top dose 20 µM)	0.947	> 20
MONO-MAC-6 (acute myeloid leukaemia, suspension, top dose 20 µM)	0.874	> 20
MRK-nu-1 (breast, suspension, top dose 20 µM)	0.99	> 20

Cell Line	AUC	IC50 [µM]
MS751 (cervix, adherent, top dose 20 µM)	0.99	> 20
MS-1 (small cell lung carcinoma, suspension, top dose 20 µM)	0.973	> 20
MSTO-211H (mesothelioma, adherent, top dose 20 µM)	0.99	> 20
MV-4-11 (leukaemia, suspension, top dose 20 µM)	0.914	> 20
MZ1-PC (pancreas, adherent, top dose 20 µM)	0.952	> 20
MZ2-MEL (melanoma, adherent, top dose 20 µM)	0.963	> 20
MZ7-mel (melanoma, adherent, top dose 20 µM)	0.978	> 20
Mewo (melanoma, adherent, top dose 20 µM)	0.984	> 20
Mo-T (hairy cell leukaemia, suspension, top dose 20 µM)	0.928	> 20
NALM-6 (B-cell leukaemia, suspension, top dose 20 µM)	0.959	> 20
NAMALWA (Burkitt lymphoma, suspension, top dose 20 µM)	0.964	> 20
NB5 (neuroblastoma, adherent, top dose 20 µM)	0.983	> 20
NB69 (neuroblastoma, adherent, top dose 20 µM)	0.954	> 20
NB-4 (acute myeloid leukaemia, suspension, top dose 20 µM)	0.94	> 20
NCI-H23 (lung adenocarcinoma, adherent, top dose 20 µM)	0.983	> 20
NCI-H69 (small cell lung carcinoma, suspension, top dose 20 µM)	0.974	> 20
NCI-H82 (small cell lung carcinoma, suspension, top dose 20 µM)	0.984	> 20
NCI-H196 (small cell lung carcinoma, adherent, top dose 20 µM)	0.971	> 20
NCI-H211 (small cell lung carcinoma, adherent, top dose 20 µM)	0.98	> 20
NCI-H226 (lung squamous cell carcinoma, adherent, top dose 20 µM)	0.985	> 20
NCI-H292 (lung adenocarcinoma, adherent, top dose 20 µM)	0.968	> 20
NCI-H322M (lung adenocarcinoma, suspension, top dose 20 µM)	0.971	> 20
NCI-H345 (small cell lung carcinoma, suspension, top dose 20 µM)	0.91	> 20
NCI-H358 (lung adenocarcinoma, adherent, top dose 20 µM)	0.937	> 20
NCI-H441 (lung adenocarcinoma, adherent, top dose 20 µM)	0.977	> 20
NCI-H446 (small cell lung carcinoma, semi-adherent, top dose 20 µM)	0.98	> 20

Cell Line	AUC	IC50 [µM]
NCI-H460 (large cell lung carcinoma, adherent, top dose 20 µM)	0.99	> 20
NCI-H510A (small cell lung carcinoma, semi-adherent, top dose 20 µM)	0.982	> 20
NCI-H520 (lung squamous cell carcinoma, adherent, top dose 20 µM)	0.97	> 20
NCI-H522 (lung adenocarcinoma, adherent, top dose 20 µM)	0.981	> 20
NCI-H524 (small cell lung carcinoma, suspension, top dose 20 µM)	0.981	> 20
NCI-H526 (small cell lung carcinoma, suspension, top dose 20 µM)	0.987	> 20
NCI-H596 (lung adenocarcinoma, adherent, top dose 20 µM)	0.971	> 20
NCI-H630 (large intestine, adherent, top dose 20 µM)	0.977	> 20
NCI-H647 (non-small cell lung carcinoma, adherent, top dose 20 µM)	0.958	> 20
NCI-H650 (lung adenocarcinoma, adherent, top dose 20 µM)	0.979	> 20
NCI-H661 (large cell lung carcinoma, adherent, top dose 20 µM)	0.976	> 20
NCI-H716 (large intestine, suspension, top dose 20 µM)	0.944	> 20
NCI-H720 (lung carcinoid, suspension, top dose 20 µM)	0.992	> 20
NCI-H727 (lung carcinoid, adherent, top dose 20 µM)	0.944	> 20
NCI-H747 (large intestine, adherent, top dose 20 µM)	0.882	> 20
NCI-H810 (large cell lung carcinoma, adherent, top dose 20 µM)	0.988	> 20
NCI-H838 (lung adenocarcinoma, adherent, top dose 20 µM)	0.987	> 20
NCI-H841 (small cell lung carcinoma, adherent, top dose 20 µM)	0.984	> 20
NCI-H847 (small cell lung carcinoma, adherent, top dose 20 µM)	0.991	> 20
NCI-H1048 (small cell lung carcinoma, adherent, top dose 20 µM)	0.99	> 20
NCI-H1155 (large cell lung carcinoma, suspension, top dose 20 µM)	0.992	> 20
NCI-H1299 (large cell lung carcinoma, adherent, top dose 20 µM)	0.959	> 20
NCI-H1304 (small cell lung carcinoma, suspension, top dose 20 µM)	0.988	> 20
NCI-H1355 (lung adenocarcinoma, adherent, top dose 20 µM)	0.978	> 20
